From PubChem BioAssay AID1159614 (National Center for Advancing Translational Sciences (NCATS), 2016)
Among all 45,000 compounds or so, about 65 (0.1%) were called active. The call rests on the fitted dose curve; in most records, active means well fitted activation curve with a large enough effect; inconclusive means small, poorly fitted or top-dose-only effect; inactive means no such curve, though single readings can be large or run the other way. Some of the results follow.

Molecular target: Galactocerebrosidase (Homo sapiens) (UniProt P54803)
Test: A Novel Cell-Based Assay to Identify Small Molecules for B -Galactocerebrosidase; further: 0% is about no effect; nearly all actives have a fitted effect of over 65% in size
Conditions: 145M-Twi-hGALC-G270D cells, HMU-beta-Gal fluorescence, 48 h; series mostly up to 57.5 µM; activation: at the top concentration
Outline: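 qHTS, 1536-well; 145M-Twi-hGALC-G270D cells (WT line also made) in DMEM/F12 + 10% FBS; compound incubation on live cells; HMU-β-gal 0.1 mM final, pH 5.2, NaTC; carbonate stop; fluorescence increase = enhanced residual activity.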

Chain of UniProt P54803 (P54803 whole entry, looked up): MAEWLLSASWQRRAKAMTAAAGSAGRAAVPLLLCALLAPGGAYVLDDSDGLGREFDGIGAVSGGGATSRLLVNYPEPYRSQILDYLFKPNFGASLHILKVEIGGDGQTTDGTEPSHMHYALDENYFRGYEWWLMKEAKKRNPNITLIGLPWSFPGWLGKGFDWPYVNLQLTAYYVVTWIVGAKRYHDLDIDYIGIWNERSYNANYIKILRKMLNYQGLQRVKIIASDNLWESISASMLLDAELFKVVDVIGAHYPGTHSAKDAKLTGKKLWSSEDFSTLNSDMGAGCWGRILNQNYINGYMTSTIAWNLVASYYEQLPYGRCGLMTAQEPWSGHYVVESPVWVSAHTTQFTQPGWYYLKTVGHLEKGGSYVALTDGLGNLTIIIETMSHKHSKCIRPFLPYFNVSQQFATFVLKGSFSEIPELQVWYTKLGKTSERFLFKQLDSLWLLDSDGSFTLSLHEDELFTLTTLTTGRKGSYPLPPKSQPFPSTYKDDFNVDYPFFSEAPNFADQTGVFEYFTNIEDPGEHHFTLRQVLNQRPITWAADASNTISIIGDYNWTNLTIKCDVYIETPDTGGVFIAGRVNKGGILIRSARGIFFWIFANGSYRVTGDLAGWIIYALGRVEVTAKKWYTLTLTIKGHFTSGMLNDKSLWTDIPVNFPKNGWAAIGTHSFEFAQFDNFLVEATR

activation, inactive:
COC(=O)[C@@H](N)Cc1ccc(O)c(O)c1 -20.5%
Cc1ccc(-c2nn(CC(=O)NC3CCCC3)c3c2cnc2ccc(F)cc23)cc1C -12.8%
Cc1cc(S(=O)(=O)C(CNC(=O)COc2ccccc2)c2cccs2)ccc1F (stereo unspecified) -8.15%
Cc1ccc(CN2CCC(CNC(=O)c3cc4ccc5cccnc5c4[nH]3)CC2)cc1 -16.4%
CCOc1cc2sc(N3CCC(C(=O)Nc4ccccc4Cl)CC3)nc2cc1Br -4.71%
COc1ccc(OCCSc2nc(C)c(Cc3ccccc3)c(=O)[nH]2)cc1 -7.69%
COc1ccc(Oc2nc3c(c(=O)n(C)c(=O)n3C)n2Cc2ccccc2Cl)cc1 -17.6%
COc1ccccc1Cn1cc(C(=O)c2ccc(Cl)cc2)c(=O)c2cc3c(cc21)OCCO3 -13.5%
COc1ccc(NC(=O)CCN2CCN(CCO)CC2)c(OC)c1 -11.8%
O=C(Nc1ccc2nc(SCc3ccccc3)sc2c1)c1cccc(F)c1 -12%
Cc1ccccc1C(=O)Nc1nnc(SCc2cc(=O)n3ccccc3n2)s1 -8.73%
CCOc1ccc(C(=O)CSc2nnc3cc(C)c4ccccc4n23)cc1 -13%
CCOc1cc(C(=O)Nc2nnc3n2CCS3)cc(OCC)c1OCC -19.3%
COc1ccccc1CNC(=O)COc1cc(=O)n(C)c2ccccc12 -8.93%
CN1CCN(C(=O)c2ccc3c(c2)N(Cc2c(F)cccc2Cl)C(=O)c2ccccc2S3)CC1 -2.46%
CCc1sc(Nc2ccc(Cl)cc2)nc1-c1cc2cccc(OC)c2oc1=O 2.44%
Cc1cc(OCC(=O)Nc2cc(-c3nc4ccccc4[nH]3)ccc2C)ccc1Cl -13.9%
CCSc1oc(-c2ccc(F)cc2)nc1S(=O)(=O)c1ccc(C)cc1 -28.3%
CC(C(=O)Nc1ccc(F)c(Cl)c1)N1Cc2ccccc2C1=O (stereo unspecified) -16.7%
COc1ccc(-c2noc(N3CCN(c4cccc(Cl)c4)CC3)n2)cc1OC -5.56%
CCCCC(CC)CNC(=O)c1ccc2c(=O)n(CCOC)c(=O)[nH]c2c1 (stereo unspecified) -9.69%
CC(=O)c1cccc(S(=O)(=O)N2CCN(c3ccccc3F)CC2)c1 -11.6%
Cc1ccc(N(CC(=O)NCC(C)c2ccccc2)S(=O)(=O)N(C)C)cc1 (stereo unspecified) 2.28%
CC(C)(C)c1ccc(C(=O)NCC(c2cccs2)S(=O)(=O)c2ccc(F)cc2)cc1 (stereo unspecified) -28.7%
Cc1ccc(C(=O)c2cn(Cc3ccccc3F)c3cc4c(cc3c2=O)OCO4)cc1 -6.78%
COC(=O)c1ccc(Cl)cc1NC(=O)N1CCC(CN2CCCC2)CC1 -1.66%
N#C/C(=C\c1ccc(Br)cc1)c1nc(-c2cc3cc(Br)ccc3oc2=O)cs1 -15.7%
O=C(Nc1ccc(Br)cc1)c1ccc(Br)c(S(=O)(=O)N2CCCCC2)c1 -21.2%
COC(=O)c1c(NC(=O)COc2ccccc2Cl)sc2c1CCC(C(C)(C)C)C2 (stereo unspecified) -13.3%
Cc1ccc(CCNC(=O)c2cc3sccc3n2Cc2ccc(F)cc2)cc1 -11.7%
Cc1cn2c(=O)cc(COC(=O)c3cccc(NC(=O)COc4ccc(Cl)cc4)c3)nc2s1 -5.87%
COc1ccc2cc3cc(C(=O)NCCc4ccccc4)sc3nc2c1Cl -15.7%
CCc1ccc(S(=O)(=O)c2c[nH]c3cc(OC)c(OC)cc3c2=O)cc1 -12.7%
CCc1ccccc1N(C)S(=O)(=O)c1ccc2[nH]cc(C(=O)NCCOC)c(=O)c2c1 -18.5%
CC1(C)O[C@@H]2C[C@H]3[C@@H]4CCC5=CC(=O)C=C[C@]5(C)[C@@H]4[C@@H](O)C[C@]3(C)[C@]2(C(=O)CO)O1 -6.69%
O=C(Cn1c(=O)n(-c2ccc(Cl)cc2)c(=O)c2sc3ccccc3c21)NC1CCCCC1 -5.29%
COc1cccc(NC(=O)C(=O)NCC(c2ccc3c(c2)OCO3)N2CCOCC2)c1 (stereo unspecified) 4.21%
COc1ccc(-c2cc(C(F)(F)F)nc(NCc3ccccc3)n2)cc1 -4.88%
Cc1ccccc1NC(=O)Cn1c(=O)n(-c2ccc(CC(=O)NCC3CCCO3)cc2)c(=O)c2ccccc21 (stereo unspecified) -14.4%
CN(Cc1ccccc1)C(C(=O)NC1CCCCC1)c1ccc(Cl)cc1 (stereo unspecified) -3.42%
COc1cc(OC)c(NC(=O)CCn2cccn2)cc1Cl -12.1%
Fc1ccc(C(Nc2ccc(Cl)c(C(F)(F)F)c2)c2nnc(-c3ccccc3)o2)cc1 (stereo unspecified) -6.81%
Cc1ccc(NC(=O)CSc2nc3ccccc3c3nc(CCn4cncc4C)nn23)c(C)c1 -15.6%
COc1cccc(-c2nc(CS(=O)(=O)CC(=O)Nc3cc(F)ccc3F)c(C)o2)c1 -11.6%
Cc1ccc(OCC(=O)N(Cc2ccco2)Cc2ccco2)cc1 4.06%
Cc1c2cnn(-c3ccccc3)c(=O)c2c(C)n1CC(=O)N1CCN(c2ccc(F)cc2)CC1 -9.15%
CCN(CCCNC(=O)CSc1cc(=O)n(C)c2cc(Cl)ccc12)c1cccc(C)c1 -33%
COc1cc(-c2noc(-c3ccc(N4CCOCC4)c([N+](=O)[O-])c3)n2)cc(OC)c1OC -14.3%
COc1ccc2nc3sc(C(=O)N4CCN(c5ccccc5)CC4)cc3cc2c1 0.698%
COc1ccc(CCNC(=O)CCn2c(=O)c3ccccc3n(Cc3c(C)cc(C)cc3C)c2=O)cc1OC -6.92%
CCS(=O)(=O)c1nc2ccccc2n1CC(=O)Nc1ccccc1C(=O)OC -11.5%
CCc1ccc(C(=O)c2c(N)c(-c3nc(-c4ccc5c(c4)OCO5)cs3)c3ccccn23)cc1 -9.84%
Oc1c(C(c2ccc(Br)cc2)N2CCOCC2)sc2nc(-c3ccco3)nn12 (stereo unspecified) -3.03%
CCCCNc1nc2c(S(=O)(=O)c3ccc(Cl)cc3)nnn2c2ccsc12 -10.9%
Cc1nn(-c2ccccc2)c2c1N(CCCC(=O)NCc1ccc(Cl)cc1)C(=O)CS2 -1.25%
O=C(NCc1ccco1)c1c[nH]c2ccc(S(=O)(=O)Nc3ccc(F)cc3F)cc2c1=O 3.32%
CN1CCN(C(=O)c2cnn(-c3cccc(Cl)c3)c2C2CCN(C(=O)OC(C)(C)C)CC2)CC1 -17.7%
COc1cccc(CNC(=O)c2ccc3c(c2)N(Cc2ccc(C(F)(F)F)cc2)C(=O)c2ccccc2S3)c1OC 6.22%
N#Cc1ccccc1S(=O)(=O)N1CCCC(c2nc3c(nnn3Cc3cccc(Cl)c3)c(=O)[nH]2)C1 (stereo unspecified) -12%
CC(C)CCNC(=O)CN1C(=O)c2cccnc2Oc2ccccc21 0.0839%
Cc1csc2nc(CCNS(=O)(=O)c3ccccc3)cn12 -5.39%
CN(C)c1ccc(C(CNC(=O)c2ccccc2F)N2CCc3ccccc32)cc1 (stereo unspecified) -13.5%
Cc1c(NC(C)C)c(=O)n(-c2ccccc2)n1C -16.9%
CCOC(=O)c1cc(-c2ccc(F)cc2)n(CC(=O)NCc2ccc(OC)cc2)c1C -4.14%
COC(=O)c1ccc([C@H]2Nc3ccc(S(=O)(=O)Nc4ccc(C)cc4)cc3[C@H]3C=CC[C@H]32)cc1 -8.56%
CCOc1ccccc1CNC(=O)CN(c1ccc(C)cc1)S(=O)(=O)N(C)C -7.91%
COc1ccc(-c2nnc(SCC(=O)NCc3ccccc3)nc2-c2ccc(OC)c(OC)c2)cc1OC 3.51%
Cc1ccc(CN(Cc2ccco2)C(=O)COc2ccc(Cl)cc2Cl)cc1 3.65%
CCOc1ccc(NC(=O)Cc2ccc(NC(=O)N3CCCCc4ccccc43)cc2)cc1 1.37%
CC(C)(C)c1ccc(S(=O)(=O)c2cnc(SCC(=O)Nc3ccc(F)c(Cl)c3)[nH]c2=O)cc1 -11.5%
COc1cc(-c2noc(-c3ccc(N4CCCCC4)c([N+](=O)[O-])c3)n2)cc(OC)c1OC -16.2%
CCOCCc1nn2c(=O)cc(COC(=O)c3ccco3)nc2s1 -2.9%
COc1cccc(CNC(=O)c2nnc(Cc3ccc(Cl)cc3)o2)c1 -3.34%
O=C(Nc1ccc2oc(-c3cc(Br)ccc3Cl)nc2c1)c1ccc2ccccc2c1 -6.68%
CC(C)(C)c1ccc(S(=O)(=O)N2CCN(C(=O)c3cc(-c4ccc(Br)cc4)n[nH]3)CC2)cc1 -7.08%
O=C(CSc1nc(O)c(C/C=C/c2ccccc2)c(=O)[nH]1)Nc1cccc(F)c1 -12%
CCOc1ccc(NC(=O)c2noc3c2CSc2ccccc2-3)cc1 -13%
CN(C(=O)c1oc(=O)c2ccccc2c1-c1ccccc1)c1cccc(Cl)c1 -12.9%
CCCn1c(=O)c2sccc2n2c(CCCC(=O)Nc3ccccc3F)nnc12 -3.38%
COc1ccc(-n2c(SCC(=O)NCc3ccccc3)nc3n[nH]c(C)c3c2=N)cc1 -15.4%
CCOC(=O)Cn1c(=O)n(C2CCCCC2)c2nc(-c3cccc(C)c3)nc(C(N)=O)c21 -14.4%
COc1cccc(N2CCN(C(=O)Cn3ncc4c(=O)oc5ccccc5c43)CC2)c1 -12.2%
O=C1CC(c2cccc(F)c2)c2c(n3ncnc3[nH]c2=O)N1 (stereo unspecified) -6.43%
O=C(CSc1ccc(-c2cccs2)nn1)Nc1cccc(F)c1 -41.9%
CCN1CCN(CCCNC(=O)c2ccc3c(c2)sc2nc(-c4ccc(C)cc4)cn23)CC1 -5.36%
COc1ccc(-c2cc(C)no2)cc1S(=O)(=O)N1CC(C)Oc2ccccc21 (stereo unspecified) -15.1%
COc1ccccc1N1CCN(c2ncnc3onc(C)c23)CC1 -14.9%
COc1ccc(-n2nc(C(=O)N3CCN(c4cccc(C(F)(F)F)c4)CC3)c3c4ccccc4n(C)c3c2=O)cc1Cl -16.7%
CCOc1ccc(CCNC(=O)Cc2ccc(NC(=O)N3CCSc4ncccc43)cc2)cc1 -18.7%
CCCNC(C)C(=O)Nc1c(C)csc1C(=O)OC (stereo unspecified) -10.5%
COc1cccc(CN2CCc3nc(N4CCN(C)CC4)ncc3C2)c1 -5.92%
COc1cc(OC)cc(C(=O)Nc2nc(-c3nnn(-c4ccc(F)c(Cl)c4)c3C)ns2)c1 -14.8%
Cc1cccc(-c2noc(-c3cc(-c4ccc(F)cc4)n[nH]3)n2)c1 -18.6%
COc1cccc(N2CCN(C(=O)Cn3ncc4c5ccccc5n(C)c4c3=O)CC2)c1 -2.12%
Cc1oc2ncn(C)c(=O)c2c1C(=O)NCc1ccccc1 -11.4%
COc1ccc(NC(=O)CSc2nc(C)cc(C)c2C(=O)Nc2cccc(C)c2)cc1 -8.36%
